A lower IC50 marks a more sensitive line; a limit (>, <) means that the fit lies beyond the doses tested. AUC is the area under the same curve over the 256-fold range up to the top dose, as a fraction; the more sensitive the line, the further below 1. For part of these data: A top dose marked as inferred comes from the curve model; the source does not state it. For part of these data: An entry number marks a drug with two screens in the source, which often give different values.
What was measured:
Assay in all cases: Viability of human cancer cell lines after 72 h of drug (GDSC screen)
Tamoxifen = compound: CC/C(=C(\c1ccccc1)c1ccc(OCCN(C)C)cc1)c1ccccc1 [Tamoxifen]; conditions: top dose 5 µM
Experimental: (§1)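 Human cancer cell lines in 384-well plates, medium with 10% serum, drug for 72 h over a 256-fold dose range (nine 2-fold or five 4-fold steps up to the top dose). Adherent lines were fixed and stained with the nucleic acid dye Syto60, suspension lines read with resazurin; signal relative to control wells, capped at 0 and 100%. One two-parameter sigmoid per drug and line, fitted in a mixed model over all curves with the slope shared within a line.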

VNLG/124 = compound: CCCC(=O)OCc1ccc(OC(=O)/C=C(C)/C=C/C=C(C)/C=C/C2=C(C)CCCC2(C)C)cc1 [VNLG/124]; conditions: top dose 5.12 µM; top dose inferred
Experimental: as §1

Elesclomol = compound: CN(NC(=O)CC(=O)NN(C)C(=S)c1ccccc1)C(=S)c1ccccc1 [Elesclomol]; conditions: top dose 0.2 µM; top dose inferred
Experimental: as §1

HG-5-88-01 = compound: COc1cc(N2CCC(C(N)=O)CC2)ccc1Nc1nc(N)c(Cl)c(Nc2ccccc2S(=O)(=O)C(C)C)n1 [HG-5-88-01]; conditions: top dose 10 µM; top dose inferred
Experimental: as §1

Bleomycin = compound: Cc1c(N)nc([C@H](CC(N)=O)NC[C@H](N)C(N)=O)nc1C(=O)N[C@H](C(=O)N[C@H](C)[C@@H](O)[C@H](C)C(=O)N[C@H](C(=O)NCCc1nc(-c2nc(C(=O)NCCC[S+](C)C)cs2)cs1)[C@@H](C)O)[C@@H](OC1OC(CO)C(O)C(O)C1OC1OC(CO)C(O)C(OC(N)=O)C1O)c1cnc[nH]1 [Bleomycin]
Experimental: as §1

Masitinib = compound: Cc1ccc(NC(=O)c2ccc(CN3CCN(C)CC3)cc2)cc1Nc1nc(-c2cccnc2)cs1 [Masitinib]; conditions: top dose 20 µM
Experimental: as §1

LAQ824 = compound: O=C(/C=C/c1ccc(CN(CCO)CCc2c[nH]c3ccccc23)cc1)NO [LAQ824]; conditions: top dose 1.024 µM; top dose inferred
Experimental: as §1

OSI-930 = compound: O=C(Nc1ccc(OC(F)(F)F)cc1)c1sccc1NCc1ccnc2ccccc12 [OSI-930]; conditions: top dose 10.24 µM
Experimental: as §1

BX-912 = compound: O=C(Nc1cccc(Nc2ncc(Br)c(NCCc3cnc[nH]3)n2)c1)N1CCCC1 [BX-912]; conditions: top dose 10.24 µM; top dose inferred
Experimental: as §1

NSC-87877 = compound: O=S(=O)(O)c1ccc2cc(N=Nc3cc(S(=O)(=O)O)c4cccnc4c3O)ccc2c1 [NSC-87877]; conditions: top dose 16 µM; top dose inferred
Experimental: as §1

[1] = top dose 50 µM, screen: GDSC drug entry 1378, top dose inferred
[2] = top dose 64 µM, screen: GDSC drug entry 190

Row | Cell Line | AUC (Tamoxifen) | IC50 (Tamoxifen) | AUC (VNLG/124) | IC50 (VNLG/124) | AUC (Elesclomol) | IC50 (Elesclomol) | AUC (HG-5-88-01) | IC50 (HG-5-88-01) | AUC (Bleomycin; [1]) | IC50 (Bleomycin; [1]) | AUC (Bleomycin; [2]) | IC50 (Bleomycin; [2]) | AUC (Masitinib) | IC50 (Masitinib) | AUC (LAQ824) | IC50 (LAQ824) | AUC (OSI-930) | IC50 (OSI-930) | AUC (BX-912) | IC50 (BX-912) | AUC (NSC-87877) | IC50 (NSC-87877)
1 | MDST8 (large intestine, adherent) | 0.983 | > 5 µM | 0.987 | > 5.12 µM | 0.582 | 0.0209 µM | 0.929 | > 10 µM | 0.497 | 3.07 µM | 0.845 | 45.6 µM | 0.969 | > 20 µM | 0.679 | 0.201 µM | 0.986 | > 10.2 µM | 0.973 | > 10.2 µM | 0.984 | > 16 µM
2 | NCI-H1437 (lung adenocarcinoma, adherent) | 0.98 | > 5 µM | 0.981 | > 5.12 µM | 0.801 | 0.102 µM | 0.841 | 7.35 µM | 0.916 | > 50 µM | 0.287 | 0.975 µM | 0.829 | 13.1 µM | 0.323 | 0.0201 µM | 0.944 | > 10.2 µM | 0.936 | > 10.2 µM | 0.927 | > 16 µM
3 | EW-1 (Ewing sarcoma, semi-adherent) | 0.988 | > 5 µM | 0.968 | > 5.12 µM | 0.38 | 0.00603 µM | 0.971 | > 10 µM | 0.361 | 1.33 µM | 0.402 | 2.21 µM | 0.843 | 12.5 µM | 0.366 | 0.0282 µM | 0.939 | > 10.2 µM | 0.595 | 1.14 µM | 0.884 | 14.9 µM
4 | NCI-H2291 (lung adenocarcinoma, adherent) | 0.976 | > 5 µM | 0.976 | > 5.12 µM | 0.928 | > 0.2 µM | 0.865 | > 10 µM | 0.86 | > 50 µM | 0.968 | > 64 µM | 0.962 | > 20 µM | 0.943 | > 1.02 µM | 0.976 | > 10.2 µM | 0.981 | > 10.2 µM | 0.979 | > 16 µM
5 | ES4 (Ewing sarcoma, adherent) | 0.98 | > 5 µM | 0.846 | 4.62 µM | 0.39 | 0.00596 µM | 0.907 | > 10 µM | 0.429 | 1.93 µM | 0.118 | < 0.25 µM | 0.856 | 19.9 µM | 0.282 | 0.014 µM | 0.916 | > 10.2 µM | 0.828 | 7.63 µM | 0.974 | > 16 µM
6 | OCI-AML5 (acute myeloid leukaemia, suspension) | 0.987 | > 5 µM | 0.438 | 0.221 µM | 0.98 | > 0.2 µM | 0.622 | 1.31 µM | 0.872 | 40.5 µM | 0.288 | 1.08 µM | 0.843 | 12.4 µM | 0.226 | 0.0111 µM | 0.931 | > 10.2 µM | 0.371 | 0.292 µM | 0.977 | > 16 µM
7 | IA-LM (large cell lung carcinoma, adherent) | 0.969 | > 5 µM | 0.98 | > 5.12 µM | 0.715 | 0.0551 µM | 0.927 | > 10 µM | 0.88 | > 50 µM | 0.462 | 3.11 µM | 0.867 | > 20 µM | 0.483 | 0.0573 µM | 0.948 | > 10.2 µM | 0.975 | > 10.2 µM | 0.984 | > 16 µM
8 | KYSE-220 (oesophagus, adherent) | 0.984 | > 5 µM | 0.974 | > 5.12 µM | 0.785 | 0.091 µM | 0.912 | > 10 µM | 0.071 | < 0.195 µM | 0.246 | 0.709 µM | 0.93 | > 20 µM | 0.5 | 0.0639 µM | 0.986 | > 10.2 µM | 0.852 | 8.65 µM | 0.976 | > 16 µM
9 | ES7 (Ewing sarcoma, adherent) | 0.931 | > 5 µM | 0.817 | 2.97 µM | 0.329 | 0.00411 µM | 0.955 | > 10 µM | 0.089 | < 0.195 µM | 0.228 | 0.628 µM | 0.619 | 2.68 µM | 0.556 | 0.0914 µM | 0.876 | > 10.2 µM | 0.385 | 0.305 µM | 0.934 | > 16 µM
10 | NCI-H2141 (small cell lung carcinoma, suspension) | 0.972 | > 5 µM | 0.976 | > 5.12 µM | 0.901 | > 0.2 µM | 0.905 | > 10 µM | 0.973 | > 50 µM | 0.813 | 33.4 µM | 0.941 | > 20 µM | 0.543 | 0.0837 µM | 0.965 | > 10.2 µM | 0.837 | 6.57 µM | 0.974 | > 16 µM
11 | NCI-H446 (small cell lung carcinoma, semi-adherent) | 0.932 | > 5 µM | 0.982 | > 5.12 µM | 0.935 | > 0.2 µM | 0.897 | > 10 µM | 0.807 | 27.9 µM | 0.739 | 20.4 µM | 0.761 | 7.56 µM | 0.571 | 0.101 µM | 0.985 | > 10.2 µM | 0.698 | 2.42 µM | 0.985 | > 16 µM
12 | ALL-SIL (T-cell leukaemia, suspension) | 0.969 | > 5 µM | 0.976 | > 5.12 µM | 0.615 | 0.0247 µM | 0.818 | 4.65 µM | 0.57 | 4.72 µM | 0.162 | 0.457 µM | 0.062 | < 0.0781 µM | 0.159 | 0.00712 µM | 0.809 | 4.45 µM | 0.141 | 0.0613 µM | 0.987 | > 16 µM

From the supplement of paper PMC4967469
